From patent publication US10941208B2, “Anti-MUC16 antibodies” (Regeneron Pharmaceuticals, Inc., priority 2016, dated 2021)

Experiments:
[1] = Pharmacokinetics in wild-type mice; type: in vivo, mouse; details: WT mice, single 0.4 mg/kg i.p.
[2] = test system: OVCAR-3/Luc; assay: OVCAR-3 model study 2 (xenogenic, BLI); type: in vivo, mouse (NSG); details: for Avg Radiance 4 days post-implantation (median ± SEM): Day 4, before dosing started (baseline)
Description: In further experiments, the in vivo efficacy of an anti-MUC16/anti-CD3 bispecific antibody was evaluated in xenogenic and syngeneic tumor models. For the first xenogenic model, NSG mice were injected intraperitoneally (IP) with OVCAR-3/Luc cells previously passaged in vivo (Day 0) eleven days after engraftment with human PBMCs. Mice were treated IP with 0.01, 0.1, or 0.5 mg/kg BSMUC16/CD3-001, or administered 0.5 mg/kg non-binding control or CD3-binding control on Days 6, 10, 13, 16, and 21. Tumor burden was assessed by BLI on Days 6, 14, and 20 post tumor implantation. […] For the second xenogenic model, NSG mice were injected with OVCAR-3/Luc cells previously passaged in vivo (Day 0) thirteen days after engraftment with human PBMCs and a second batch of PBMCs were transferred on Day 4. Mice were treated intravenously (IV) with 0.1, 0.5, 1, or 5 mg/kg BSMUC16/CD3-005 or administered 5 mg/kg non-binding control or CD3-binding control on Days 5, 8, 12, 15, 19 and 22. Tumor burden was assessed by BLI on Days 4, 11, 18 and 25. […] To examine efficacy in an immune-competent model, the murine CD3 gene was replaced with human CD3 and a portion of the mouse MUC16 gene was replaced with the human sequence. […] For the syngeneic tumor model, ID8-VEGF cell lines engineered to express the portion of human MUC16 were used. Mice were implanted with the ID8-VEGF/huMUC16 cells subcutaneously and treated with 100 μg of BSMUC16/CD3-001 either on day of implantation or ten days after implantation when tumors were established.
Ascites cells from the OVCAR-3/Luc cell line, previously passaged in vivo, were administered IP into the NSG mice previously engrafted with human PBMCs. BLI was measured as a read-out for tumor growth several days after OVCAR-3/Luc implantation and at multiple times during study. After initial BLI measurement for cohorting, mice were divided into groups of 4-6 animals each and administered MUC16×CD3 bispecific or control antibodies twice per week throughout the study.
Bioluminescence imaging was used to measure tumor burden. Mice were injected IP with 150 mg/kg (as determined by body weights at the start of the experiment) of the luciferase substrate D-luciferin suspended in PBS. Ten minutes after dosing, BLI imaging of the mice was performed under isoflurane anesthesia using the Xenogen IVIS system. Image acquisition was carried out with the field of view at D, subject height of 1.5 cm, and medium binning level for 0.5-min exposure time. BLI signals were extracted using Living Image software. Regions of interest were drawn around each tumor mass and photon intensities were recorded as p/s/cm^2/sr. Statistical analysis was performed using GraphPad Prism software (Version 6). Statistical significance for the BLI results was determined using an unpaired nonparametric Mann-Whitney t-test. Fold changes were calculated by the formula: (Day 20-Day 6)/Day 6 for study 1 and (Day 25-Day 4)/Day 4 for study 2.

[3] = test system: OVCAR-3/Luc; assay: OVCAR-3/Luc xenograft in PBMC-engrafted NSG mice, therapeutic treatment; type: in vivo; details: NSG mice with human PBMCs, 10 μg/mouse i.p. 7 d post tumor implantation (therapeutic treatment)
Source text: (§1) To assess the in vivo efficacy of the anti-MUC16/anti-CD3 bispecifics in human tumor xenograft studies, NOD scid gamma (NSG) mice (Jackson Laboratories, Bar Harbor, Me.) were pre-implanted with human peripheral blood mononuclear cells (PBMCs; ReachBio LLC., Seattle, Wash.) and then given ascites cells from the human ovarian cancer cell line OVCAR-3 (American Type Tissue Culture, Manassas, Va.) transduced with luciferase (OVCAR-3/Luc). OVCAR-3 cells endogenously express MUC-16.
(§2) Briefly, NSG mice were injected intraperitoneally (i.p.) with 5.0×10^6 human PBMCs. 8 d later, 1.5×10^6 ascites cells from the OVCAR-3/Luc cell line, previously passaged in vivo, were administered i.p. to the NSG mice engrafted with PBMCs. In the immediate treatment group, mice were treated i.p. on the day of OVCAR-3/Luc cell implantation with MUC16/CD3 Bispecific antibodies BSMUC16/CD3-001 or BSMUC16/CD3-005, or an isotype control, at a dose of 10 μg/mouse (N=5 mice/treatment group). In the therapeutic dose model, mice were treated i.p. 7 d post tumor implantation with the MUC16/CD3 Bispecific or control antibodies described above, at a dose of 10 μg/mouse (N=5/treatment group).
(§3) In all studies, tumor growth was monitored via bioluminescent imaging (BLI). […] Regions of interest were drawn around each cell mass and photon intensities were recorded as photons (p)/sec (s)/cm^2/steradian (sr). […]

[4] = test system: OVCAR-3/Luc; assay: OVCAR-3/Luc xenograft in PBMC-engrafted NSG mice, immediate dosing; type: in vivo; details: NSG mice with human PBMCs, 10 μg/mouse i.p. on day of implantation (immediate dosing)
Source text: as §1, §2, §3

[5] = Pharmacokinetics in humanized MUC16×CD3 mice (MUC16^hu/hu×CD3^hu/hu); type: in vivo, mouse
[6] = MUC16^hu/hu × CD3^hu/hu mice, single 0.4 mg/kg i.p.

B1: BSMUC16/CD3-005: anti-MUC16×CD3 bispecific, modified (chimeric) IgG4 Fc; H1H8767P HCVR (SEQ 18), CD3-VH-G20 (SEQ 1866), common LCVR SEQ 26 (antibody, V domains shown)
VH 1: QVQLVESGGGLVKPGGSLRLSCAASGFTFSNYYMSWVRQAPGKGLEWISYISGRGSTIFYADSVKGRITISRDNAKNSLFLQMNSLRAEDTAVYFCVKDRGGYSPYWGQGTLVTVSS
VH 2: EVQLVESGGGLVQPGRSLRLSCAASGFTFDDYSMHWVRQAPGKGLEWVSGISWNSGSIGYADSVKGRFTISRDNAKNSLYLQMNSLRAEDTALYYCAKYGSGYGKFYYYGMDVWGQGTTVTVSS
VL: [… about 100 residues …]PITFGQGTRLEIK
- AUClast [1]: 45 µg·days/mL
- Cmax (Peak concentration) [1]: 5000 ng/mL
- T1/2 (Estimated half-life observed) [1]: 12 days
- Total mAb Concentration In Mouse Serum, Mean ([1]; Time 0.13 d): 4.23 µg/mL
- Total mAb Concentration In Mouse Serum, Mean ([1]; Time 0.25 d): 4.53 µg/mL
- Total mAb Concentration In Mouse Serum, Mean ([1]; Time 1.00 d): 3.47 µg/mL
- Total mAb Concentration In Mouse Serum, Mean ([1]; Time 3.00 d): 2.51 µg/mL
- Total mAb Concentration In Mouse Serum, Mean ([1]; Time 7.00 d): 2.02 µg/mL
- Total mAb Concentration In Mouse Serum, Mean ([1]; Time 14.00 d): 1.19 µg/mL
- Total mAb Concentration In Mouse Serum, Mean ([1]; Time 21.00 d): 1.19 µg/mL
- Total mAb Concentration In Mouse Serum, Mean ([1]; Time 28.00 d): 0.71 µg/mL
- Fold change in Avg Radiance [p/s/cm2^2/sr] from Day 4 to D 25 post-implantation (mean ± SD) ([2]; 0.1 mg/kg IV, (Day 25-Day 4)/Day 4): 45.4 ± 35.7 fold
- Avg Radiance 4 days post-implantation (median ± SEM) ([2]; 0.1 mg/kg group): 1.53e+05 ± 1.93e+04 p/s/cm2^2/sr
- Avg Radiance 4 days post-implantation (median ± SEM) ([2]; 0.5 mg/kg group): 1.31e+05 ± 4.03e+03 p/s/cm2^2/sr
- Avg Radiance 4 days post-implantation (median ± SEM) ([2]; 1 mg/kg group): 1.38e+05 ± 4.65e+03 p/s/cm2^2/sr
- Avg Radiance 4 days post-implantation (median ± SEM) ([2]; 5 mg/kg group): 1.54e+05 ± 1.03e+04 p/s/cm2^2/sr
- Fold change in Avg Bioluminescent Radiance [p/s/cm^2/sr] at Day 26 relative to Day 6 (mean ± SD) [3]: 0.01 ± 0.02 fold
- Avg Bioluminescent Radiance Day 26 (mean ± SD) [4]: 1.5 × 10^3 ± 9.7 × 10^2 photons/sec/cm^2/steradian
- AUClast [5, 6]: 34 µg·days/mL
- Cmax (Peak concentration) [5, 6]: 4500 ng/mL
- T1/2 (Estimated half-life observed) [5, 6]: 8.2 days
- Total mAb Concentration In Mouse Serum, Mean ([5]; MUC16^hu/hu × CD3^hu/hu mice, single 0.4 mg/kg i.p., Time 0.13 d): 4.35 µg/mL
- Total mAb Concentration In Mouse Serum, Mean ([5]; MUC16^hu/hu × CD3^hu/hu mice, single 0.4 mg/kg i.p., Time 0.25 d): 4.45 µg/mL
- Total mAb Concentration In Mouse Serum, Mean ([5]; MUC16^hu/hu × CD3^hu/hu mice, single 0.4 mg/kg i.p., Time 1.00 d): 3.00 µg/mL
- Total mAb Concentration In Mouse Serum, Mean ([5]; MUC16^hu/hu × CD3^hu/hu mice, single 0.4 mg/kg i.p., Time 3.00 d): 1.98 µg/mL
- Total mAb Concentration In Mouse Serum, Mean ([5]; MUC16^hu/hu × CD3^hu/hu mice, single 0.4 mg/kg i.p., Time 7.00 d): 1.58 µg/mL
- Total mAb Concentration In Mouse Serum, Mean ([5]; MUC16^hu/hu × CD3^hu/hu mice, single 0.4 mg/kg i.p., Time 14.00 d): 0.78 µg/mL
- Total mAb Concentration In Mouse Serum, Mean ([5]; MUC16^hu/hu × CD3^hu/hu mice, single 0.4 mg/kg i.p., Time 21.00 d): 0.66 µg/mL
- Total mAb Concentration In Mouse Serum, Mean ([5]; MUC16^hu/hu × CD3^hu/hu mice, single 0.4 mg/kg i.p., Time 28.00 d): 0.30 µg/mL
- Terminal antibody concentration, fold less than the isotype control ([5]; MUC16^hu/hu×CD3^hu/hu double-humanized mice): ~2.9 fold
